± gives the standard deviation. This is a selection; strong and weak results do not stand in their true shares.
The sequences below were run on MIWI (PIWIL1) piRISC loaded with piRNA #1 (30 nt) (assay: pre-steady-state target cleavage rate (min^-1); MIWI and MILI are mouse PIWI proteins and EfPiwi is from a freshwater sponge; tags in brackets are library labels; higher = faster piRNA-guided slicing of the target). Settings: guide: piRNA #1 5'p-UGAGGUAGUAGGUUGUAUAGUAUCCAGAGG; auxiliary factor: 500 nM mouse GTSF1.
Method in brief: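 Sequencing of uncleaved targets, normalised to depth and to weakly complementary targets, was the readout of this Cleave-'n-Seq assay. A transcribed, DNA-blocked target RNA library (0.1 nM) was mixed with 1 nM active affinity-purified piRISC carrying one synthetic guide, with or without 500 nM GTSF1 partner protein, in HEPES–potassium acetate buffer at 33 °C for 0–8 or 0–960 min. Three trials were pooled, k3 was capped at 0.0001 min^-1, and a burst-and-steady-state fit gave the pre-steady-state cleavage rate.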

Point of comparison: GGAGACCUAACUAUACAACGUACUACCUGA, “pre-steady-state target cleavage rate” value 0.0714 ± 0.019. Against it:
- GGAGACCUUACUAUUCAACCUACUACCUGA — higher, 0.45 ± 0.046
- GGUCUGGAAACUAUACUACCUACUACCUCA — higher, 1.32 ± 0.082
- GCUCAGGAUACUAUACAAGCUACUACCUCA — higher, 1 ± 0.04
- GGAGACCAUGCUAUACAACCUACUACCUCA — higher, 1.64 ± 0.14
- GGAGACCUAUCUAUACAACGCUACUACCUCA — lower, < 0.0001
- GGAGUGUGAUACUAUACAACCUACUACCUCA — higher, 1.81 ± 0.1
- CCACUGGAUACUAUACAACCUUCUACCUCA — higher, 0.709 ± 0.034
- GGAGACCUAUGAUAACAACCUACUACCAGA — lower, < 0.0001
- GGAGACCUUAGUAUACAACCUACUACCUCA — higher, 0.627 ± 0.066
- GGAGUGGUUACUAUACAACCUUCUACCUCA — higher, 0.629 ± 0.029
- GGAGUGGAUACUAUCAACCUACUACCUCA — higher, 1.58 ± 0.11
- GGACUGGAUACUAUAGCAACCUACUACCUCA — higher, 0.931 ± 0.12
- GGAGACCUAACUUUACAACCUACUACCUCA — higher, 0.373 ± 0.061
- GCUCUGGAAACUAUACAACCUAGUACCUCA — higher, 0.688 ± 0.13
- GCUCUGGAUACUAUACAACCUAUACCUCA — lower, 0.00931 ± 0.0037
- GGAGAGGAUACUCAUACAACCUACUACCUCA — higher, 1.44 ± 0.1
- GCUCUGGAUACUAUACAACCAUGUACCUCA — lower, 0.00914 ± 0.0029
- GGAGACCUAUCUAUACUACCUACAACCUCA — lower, 0.0031 ± 0.0021
- GGAGACCUUACUUUAGAACCUACUACCUCA — higher, 0.496 ± 0.053
- CCUCUGCAUACUAAACAACCUACUACCUCA — higher, 1.93 ± 0.12
- GGAGUGGAUACUAAACAAGCUACUACCUCA — higher, 0.881 ± 0.04
- GGUCUGGAUACUAUACAACCUAGAUCCUCA — lower, 0.00874 ± 0.0021
- GGACUGGAUACUAUACAACCUACGACCUCA — higher, 0.37 ± 0.047
- GGAGUGGAUAGAUUACAACCUACUACCUCA — higher, 0.325 ± 0.042
- GGAGACCUAUCUAUACGACCUACUACCUCA — higher, 0.209 ± 0.021
- GGAGACCAUACUAUACAACCUACUACGACA — higher, 0.803 ± 0.063
- GCUCUGGAUACUUUUCAACCUACUACCUCA — higher, 1.28 ± 0.084
- GGUCUGGAUACAAUACAACCUACUUCCUCA — higher, 0.204 ± 0.044
- GCUCUGGAUACUAUACAUCCUACUACCACA — higher, 1.61 ± 0.1
- GGACUGCAUACUAUACAACCUAGUACCUCA — higher, 0.49 ± 0.053
- GCUCUGGAUACUAUACAACCUACUACCUGCA — higher, 1.43 ± 0.11
- GGAGACCUUACUAUACAACCUACUACCGCA — higher, 1.5 ± 0.1
- GGAGACCUAUGAUUACAAGCAACUACCUCA — lower, < 0.0001
- CCUCUGGAUACUAUACCACCUACUACCUCA — higher, 1.82 ± 0.11
- GGAGUGGAUACUAUACAACCUGACUACCUCA — lower, 0.00293 ± 0.0026
- GGAGACCUAUGAUUACAACCUACUAGGACA — lower, < 0.0001
- GGAGACGAUACUUUACAACCUUCUACCUCA — higher, 0.528 ± 0.024
- GGAGACCAUACUAAACAUCCUACUACCUCA — higher, 0.68 ± 0.07
- GGAGACGAUACUAUACAACCAAGUACCUCA — within error, 0.0472 ± 0.0085

From the supplement of paper PMC10338343
